From PubChem BioAssay (NCATS)
Inconclusive means that the source gave no clear call. Such entries were picked first, then a sample of the others. Potencies beside an inconclusive call are fits to weak or partial responses and may not hold up. Activity calls are given as the source filed them. Calls come from the whole dose curve; as a rule, active = well fitted activation curve with a large enough effect in the signal ratio, with a control signal flat (not every such curve was filed as active); inconclusive = small, poorly fitted or top-dose-only effect, or effect the other way, or a change in a side signal; inactive = flat fitted curve, though single readings scatter; the % refers to the signal ratio.
Potency is the fitted concentration of half-maximal effect; tags give direction and shape of the fitted curve or compound fluorescence and quenching.

Test: qHTS Assay for Identification of Small Molecule Agonists for Hypoxia Response Element Signaling Pathway (AID 914); for activation: top concentration of the series differs between compounds; % of control where 0% means no effect
Details: ME-180 (cervical carcinoma) HRE-bla reporter, beta-lactamase ratio, CoCl2, 17 h; activation: stronger effect = higher value
How it was run: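 Positive modulation of EC50 CoCl2-induced hypoxia response element signaling is measured in ME-180 cells with a beta-lactamase reporter. Compounds are titrated, incubation runs 17 hours, and %Activity derives from the blue/green ratio.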
For `Cc1cc(OCC(=O)Nn2cnnc2)ccc1Br`, the activation was inactive: 8.36%. In the case of `Cn1c(=O)c2c(nc(NCc3ccco3)n2CCc2ccccc2)n(C)c1=O`, the activation is reported as inconclusive: -29%. For `COCCCN1C(=O)C(O)=C(C(=O)c2ccco2)C1c1ccc(Br)cc1` (stereo not given), the Potency was inconclusive: 3.98 µM [inhibitor, partial curve]. In the case of `O=C(O)[C@@H](Br)[C@@H](Br)c1ccccc1[N+](=O)[O-]`, the activation is reported as inactive: 6.66%. With `Cc1cc(O)ccc1-c1cnc2ccccc2n1` the activation was inconclusive: -33.1%. In the case of `O=C(O)CSc1nnc2c3ccccc3c3ccccc3c2n1`, the Potency is reported as inconclusive: 3.98 µM [inhibitor, partial curve]. In the case of `O=S(=O)(O)c1ccc(-c2nnc(-c3ccccn3)nc2-c2ccc(S(=O)(=O)O)o2)o1`, the activation is reported as inactive: 8.26%. For `CO[C@@H]1COC(=O)[C@H]2CCCN2C(=O)[C@@H](C)COC(=O)CCC[C@H]1C`, the activation was inconclusive: -7.11%. With `CCOc1ccc(Cn2c(O)cc(=O)[nH]c2=O)cc1` the activation was inactive: 5.51%. In the case of `Clc1ccc(-c2nn3c(-c4cccc(Cl)c4)nnc3s2)cc1`, the Potency is reported as inconclusive: 10 µM [inhibitor, partial curve]. In the case of `CO[C@H]1COC(=O)[C@H](C)NC(=O)C/C=C\[C@@H](C)[C@H](OC)COC(=O)[C@@H](OCc2ccccc2)/C=C\[C@@H]1C`, the activation is reported as inconclusive: 2.12%. With `CCNC(=O)N(C)c1nncnc1C(=O)NC` the activation was inconclusive: 7.21%. With `Nc1nc(-c2cccc([N+](=O)[O-])c2)cc(-c2cc(-c3cccc([N+](=O)[O-])c3)nc(N)n2)n1` the activation was inactive: 18.2%. For `Nc1nonc1-c1noc(N2CCOCC2)n1`, the activation was inconclusive: -6.71%. For `Cc1cc(=O)oc(C)c1C(=O)NCC1CCCO1` (stereo not given), the Potency was inconclusive: 12.6 µM [inhibitor, single point]. In the case of `CC1(C)CC(=O)C=C(N=CC2=C(O)CC(C)(C)CC2=O)C1`, the activation is reported as inactive: -17.7%. In the case of `O=C(O)C(Sc1ccc(Cl)cc1)Sc1ccc(Cl)cc1`, the activation is reported as inactive: -0.83%. In the case of `CCOC(=O)C(C(=O)OCC)N(C#N)c1nc(SC)nc(N(C)C)n1`, the activation is reported as inactive: -11.1%. For `O=C(O)c1cc(-c2ccc3cc4c(cc3c2)OCO4)nc2ccccc12`, the Potency was inconclusive: 3.16 µM [inhibitor, single point]. For `CC(C)(CC(=O)Nc1ccccc1)C(=O)O`, the activation was inconclusive: 1.21%. With `CCCOC(=O)CSC1=C(C#N)C(c2ccc3c(c2)OCO3)CC(=O)N1` (stereo not given) the activation was inactive: -15.4%. For `COc1cc(C)nc(Oc2ccc(=O)n(C)n2)n1`, the Potency was inconclusive: 12.6 µM [inhibitor, single point]. For `COCCNc1ncnc2c1cnn2-c1ccc(Cl)cc1`, the Potency was inconclusive: 7.94 µM [inhibitor, partial curve, poor fit]. In the case of `CCOC(=O)c1[nH]c2ccc(C)cc2c1N`, the activation is reported as inconclusive: -30.5%. In the case of `O=C(CNC1=NCCC1)c1ccc2c(c1)OCCO2`, the activation is reported as inconclusive: 10.5%. For `COc1cc(S(=O)(=O)N2CCN(c3ccc(F)cc3)CC2)ccc1Cl`, the activation was inconclusive: -24.9%. With `COc1ccc2c(C)nc(Nc3nc(C)cc(C)n3)nc2c1` the activation was inactive: -6.59%. In the case of `Cc1noc(C)c1C(=O)N1CCC2(CCCN(c3ncccn3)C2)CC1`, the Potency is reported as inconclusive: 0.158 µM [activator, single point]. With `CC1(C)Cc2nc(NCCN3CCOCC3)c(C#N)cc2CO1` the activation was inactive: 3.3%. In the case of `O=C(NCc1ccco1)c1ccc(=O)oc1`, the activation is reported as inconclusive: 4.41%. With `COc1c(O)ccc2cnn(-c3ccccc3C)c(=O)c12` the Potency was inconclusive: 3.16 µM [inhibitor, full curve]. For `Cc1ccc(-n2nc3cc(Cl)c(NC(=O)c4ccco4)cc3n2)cc1`, the activation was inconclusive: -28.2%. For `CC(C)CNc1nc2c(c(=O)n(C)c(=O)n2C)n1Cc1cccc(Br)c1`, the activation was inconclusive: -24.5%. With `CC1(C)CC(=O)C(C=Nc2ccc(Cl)cn2)=C(O)C1` the activation was inactive: -14.7%. For `CNc1nc(C)c(C#N)cc1C(C)=O`, the activation was inactive: 6.97%. In the case of `Cc1ccc(-n2c(SCC(=O)NCc3ccco3)nc3nc4c(cc3c2=O)COC(C)(C)C4)cc1`, the activation is reported as inactive: -23.6%. In the case of `COc1cc(C)nc(Nc2nc(C)c(C(C)=O)s2)n1`, the Potency is reported as inconclusive: 1 µM [activator, full curve]. For `CSc1nc(C)c2c(c1C#N)CCCC2`, the activation was inactive: -4.49%. In the case of `CCCCOc1ccccc1C(=O)NCCCCCC(=O)O`, the activation is reported as inactive: 8%. For `COC(=O)[C@H]1CCCN1C(=O)Nc1cccc(Oc2c(F)c(F)c(F)c(F)c2F)c1`, the activation was inactive: -9.38%.
